Some of the results follow. Sequences were assembled here from the parent chain. Values near 0.05 are background.
B1: TEV protease; numbered along this chain (parent)
chain: MGESLFKGPRDYNPISSSICHLTNESDGHTTSLYGIGFGPFIITNKHLFRRNNGTLVVQSLHGVFKVKDTTTLQQHLVDGRDMIIIRMPKDFPPFPQKLKFREPQREERICLVTTNFQTKSMSSMVSDTSCTFPSGDGIFWKHWIQTKDGQCGSPLVSTRDGFIVGIHSASNFTNTNNYFTSVPKNFMELLTNQEAQQWVSGWRLNADSVLWGGHKVFMVKPEEPFQPVKEATQL

Variants of: B1
Assay: raw area under fraction-flipped curve 0-4 h after induction (AUC4h, not background-subtracted), DNA-recorder readout of cleavage of the substrate (dimensionless); higher = more cleavage of the substrate by the protease variant
Details: temperature: 34 °C; time window: 0-4 h after rhamnose induction
Procedure: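 In vivo DNA recorder in E. coli TOP10(DE3) ΔrhaA at 34 °C. Each TEVp single-site mutant (parent TEVp 0) is paired with a single-site variant of the 7-mer TEVs (canonical ENLYFQ|S). The substrate sits between flexible linkers in a Bxb1-sfGFP-TEVs-SsrA fusion, so cleavage stabilises Bxb1 and speeds flipping of a recombination array, read by NGS. The value is the raw area under the fraction-flipped curve over 0-4 h after rhamnose induction (AUC4h), with ≥20 reads per time point. It is not background-subtracted; inactive controls average about 0.047.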
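Further: Bxb1 expression induced with 0.2% (w/v) L-rhamnose at OD600 near 0.5, cultures sampled hourly, flipped fraction per protease–substrate barcode pair counted by paired-end Illumina sequencing.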

Row | Variant | area with substrate EALYFQS | area with substrate ECLYFQS | area with substrate EDLYFQS | area with substrate EELYFQS | area with substrate EFLYFQS | area with substrate EGLYFQS | area with substrate EHLYFQS | area with substrate EILYFQS | area with substrate EKLYFQS | area with substrate ELLYFQS | area with substrate EPLYFQS | area with substrate EQLYFQS | area with substrate ERLYFQS | area with substrate ETLYFQS | area with substrate EVLYFQS | area with substrate EWLYFQS | area with substrate ESLYFQS | area with substrate EMLYFQS | area with substrate EYLYFQS
1 | MGESLFKGPRDYNPISSSICHLTNESDGHTTSLYGIGFGPFIITNKHLFRRNNGTLVVQSLHGVFKVKDTTTLQQHLVDGRDMIIIRMPKDFPPFPQKLKFREPQREERICLVTTNFQTKSMSSMVSDTSCTFPSGDGIFWKHWIQTKDGQCGSPLVSTRDGFIVGDHSASNFTNTNNYFTSVPKNFMELLTNQEAQQWVSGWRLNADSVLWGGHKVFMVKPEEPFQPVKEATQL [I167D] | 0.0581 | 0.0521 | 0.0518 | 0.0567 | 0.0565 | 0.0522 | 0.0516 | 0.0419 | 0.0709 | 0.0259 | 0.0781 | 0.0564 | 0.0513 | 0.0411 | 0.0537 | 0.0435 |  |  | 
2 | MGESLFKGPRDYNPISSSICHLTNESDGHTTSLYGIGFGPFIITNKHLFRRNNGTLVVQSLHGVFKVKDTTTLQQHLVDGRDMIIIRMPKDFPPFPQKLKFREPQREERICLVTTNFQTKSMSSMVSDTSCTFPSGDGIFWKHWIQTKDGQCGSPLVSTRDGFIVGGHSASNFTNTNNYFTSVPKNFMELLTNQEAQQWVSGWRLNADSVLWGGHKVFMVKPEEPFQPVKEATQL [I167G] | 0.0642 | 0.0602 | 0.0599 | 0.0617 | 0.0433 |  |  |  |  |  | 0.057 |  | 0.0529 |  |  |  | 0.055 |  | 
3 | MGESLFKGPRDYNPISSSICHLTNESDGHTTSLYGIGFGPFIITNKHLFRRNNGTLVVQSLHGVFKVKDTTTLQQHLVDGRDMIIIRMPKDFPPFPQKLKFREPQREERICLVTTNFQTKSMSSMVSDTSCTFPSGDGIFWKHWIQTKDGQCGSPLGSTRDGFIVGIHSASNFTNTNNYFTSVPKNFMELLTNQEAQQWVSGWRLNADSVLWGGHKVFMVKPEEPFQPVKEATQL [V157G] | 0.0642 | 0.0606 | 0.0572 | 0.0651 | 0.0693 | 0.0614 | 0.0553 | 0.0474 | 0.0623 | 0.0517 | 0.0484 |  | 0.0352 | 0.0519 |  |  | 0.053 |  | 
4 | MGESLFKGPRDYNPISSSICHLTNESDGHTTSLYGIGFGPFIITNKHLFRRNNGTLVVQSLHGVFKVKDTTTLQQHLVDGRDMIIIRMPKDFPPFPQKLKFREPQREERICLVTTNFQTKSMSSMVSDTSCTFPSGDGIFWKHWIQTKDGQHGSPLVSTRDGFIVGIHSASNFTNTNNYFTSVPKNFMELLTNQEAQQWVSGWRLNADSVLWGGHKVFMVKPEEPFQPVKEATQL [C152H] | 0.0746 |  |  | 0.0621 |  |  |  |  |  |  |  | 0.0502 |  |  | 0.0603 | 0.0668 | 0.0625 |  | 
5 | MGESLFKGPRDYNPISSSICHLTNESDGHTTSLYGIGFGPFIITNKHLFRRNNGTLVVQSLHGVFKVKDTTTLQQHLVDGRDMIIIRMPKDFPPFPQKLKFREPQREERICLVTTNFQTKSMSSMVSDTSCTFPSGDGIFWKHWIQTKDGQRGSPLVSTRDGFIVGIHSASNFTNTNNYFTSVPKNFMELLTNQEAQQWVSGWRLNADSVLWGGHKVFMVKPEEPFQPVKEATQL [C152R] | 0.0664 |  | 0.07 | 0.0577 |  | 0.0448 |  | 0.0664 |  |  |  | 0.053 | 0.0632 |  | 0.0413 | 0.0471 | 0.0645 | 0.0606 | 0.0538
6 | MGESLFKGPRDYNPISSSICHLTNESDGHTTSLYGIGFGPFIITNKHLFRRNNGTLVVQSLHGVFKVKDTTTLQQHLVDGRDMIIIRMPKDFPPFPQKLKFREPQREERICLVTTNFQTKSMSSMVSDTSCTFPSGDGIFWKHWIQTKDGQQGSPLVSTRDGFIVGIHSASNFTNTNNYFTSVPKNFMELLTNQEAQQWVSGWRLNADSVLWGGHKVFMVKPEEPFQPVKEATQL [C152Q] | 0.0589 |  |  |  | 0.0743 |  |  | 0.0594 |  |  | 0.0558 |  |  |  | 0.0594 | 0.0594 | 0.0692 |  | 
7 | MGESLFKGPRDYNPISSSICHLTNESDGHTTSLYGIGFGPFIITNKHLFRRNNGTLVVQSLHGVFKVKDTTTLQQHLVDGRDMIIIRMPKDFPPFPQKLKFREPQREERICLVTTNFQTKSMSSMVSDTSCTFPSGDGIFWKHWIQTKDGQCVSPLVSTRDGFIVGIHSASNFTNTNNYFTSVPKNFMELLTNQEAQQWVSGWRLNADSVLWGGHKVFMVKPEEPFQPVKEATQL [G153V] | 0.049 | 0.044 |  | 0.0498 |  |  | 0.0523 | 0.0558 |  |  |  | 0.0495 | 0.0381 |  | 0.0379 |  | 0.104 |  | 0.0559
8 | MGESLFKGPRDYNPISSSICHLTNESDGHTTSLYGIGFGPFIITNKHLFRRNNGTLVVQSLHGVFKVKDTTTLQQHLVDGRDMIIIRMPKDFPPFPQKLKFREPQREERICLVTTNFQTKSMSSMVSDTSCTFPSGDGIFWKHWIQTKGGQCGSPLVSTRDGFIVGIHSASNFTNTNNYFTSVPKNFMELLTNQEAQQWVSGWRLNADSVLWGGHKVFMVKPEEPFQPVKEATQL [D149G] | 0.117 | 0.0967 | 0.124 | 0.109 | 0.0867 | 0.0647 | 0.104 | 0.0776 | 0.0691 | 0.081 | 0.0972 | 0.0885 | 0.0774 |  |  | 0.114 | 0.0772 | 0.1 | 
9 | MGESLFKGPRDYNPISSSICHLTNESDGHTTSLYGIGFGPFIITNKHLFRRNNGTLVVQSLHGVFKVKDTTTLQQHLVDGRDMIIIRMPKDFPPFPQKLKFREPQREERICLVTTNFQTKSMSSMVSDTSCTFPSGDGIFWKHWIQTKDGQCGSQLVSTRDGFIVGIHSASNFTNTNNYFTSVPKNFMELLTNQEAQQWVSGWRLNADSVLWGGHKVFMVKPEEPFQPVKEATQL [P155Q] | 0.0554 | 0.0483 | 0.0485 | 0.0661 | 0.0463 | 0.0505 | 0.0495 | 0.0497 | 0.0497 | 0.0064 | 0.0587 | 0.0553 | 0.0568 |  | 0.0505 | 0.0524 | 0.053 | 0.048 | 0.0449
10 | MGESLFKGPRDYNPISSSICHLTNESDGHTTSLYGIGFGPFIITNKHLFRRNNGTLVVQSLHGVFKVKDTTTLQQHLVDGRDMIIIRMPKDFPPFPQKLKFREPQREERICLVTTNFQTKSMSSMVSDTSCTFPSGDGIFWKHWIQTKDGQCGSPLVSTRDGFICGIHSASNFTNTNNYFTSVPKNFMELLTNQEAQQWVSGWRLNADSVLWGGHKVFMVKPEEPFQPVKEATQL [V165C] | 0.116 | 0.0817 |  | 0.105 | 0.0877 | 0.0751 | 0.0973 | 0.0746 | 0.0996 | 0.0805 | 0.105 |  |  | 0.106 | 0.0745 |  | 0.0884 | 0.0711 | 
